Source: PubChem BioAssay AID488969 (Vanderbilt High Throughput Screening Facility, 2010)
The full ranking holds about 110,000 compounds; the median of “z-score” is about -0.1, and the highest 2% start at about 2. The list shows a part of the results. Activity calls are given as the source filed them.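 Rule for the calls: active = z-score in the third read window above 3 or below -3; inactive = the rest.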

These compounds were tested against Metabotropic glutamate receptor 8 (Rattus norvegicus) (UniProt P70579) (assay: mGluR8 Gi/Go-coupled signaling modulation – cell-based, rat, thallium flux, HTS, primary screen (AID 488969)). Conditions: HEK293 rat mGluR8, GIRK (G protein-gated inwardly rectifying potassium channel) thallium flux, FluoZin2; at 10 µM; stronger effect = higher value; submaximal glutamate (EC20) added with thallium.
UniProt P70579, sequence (P70579 whole entry, looked up): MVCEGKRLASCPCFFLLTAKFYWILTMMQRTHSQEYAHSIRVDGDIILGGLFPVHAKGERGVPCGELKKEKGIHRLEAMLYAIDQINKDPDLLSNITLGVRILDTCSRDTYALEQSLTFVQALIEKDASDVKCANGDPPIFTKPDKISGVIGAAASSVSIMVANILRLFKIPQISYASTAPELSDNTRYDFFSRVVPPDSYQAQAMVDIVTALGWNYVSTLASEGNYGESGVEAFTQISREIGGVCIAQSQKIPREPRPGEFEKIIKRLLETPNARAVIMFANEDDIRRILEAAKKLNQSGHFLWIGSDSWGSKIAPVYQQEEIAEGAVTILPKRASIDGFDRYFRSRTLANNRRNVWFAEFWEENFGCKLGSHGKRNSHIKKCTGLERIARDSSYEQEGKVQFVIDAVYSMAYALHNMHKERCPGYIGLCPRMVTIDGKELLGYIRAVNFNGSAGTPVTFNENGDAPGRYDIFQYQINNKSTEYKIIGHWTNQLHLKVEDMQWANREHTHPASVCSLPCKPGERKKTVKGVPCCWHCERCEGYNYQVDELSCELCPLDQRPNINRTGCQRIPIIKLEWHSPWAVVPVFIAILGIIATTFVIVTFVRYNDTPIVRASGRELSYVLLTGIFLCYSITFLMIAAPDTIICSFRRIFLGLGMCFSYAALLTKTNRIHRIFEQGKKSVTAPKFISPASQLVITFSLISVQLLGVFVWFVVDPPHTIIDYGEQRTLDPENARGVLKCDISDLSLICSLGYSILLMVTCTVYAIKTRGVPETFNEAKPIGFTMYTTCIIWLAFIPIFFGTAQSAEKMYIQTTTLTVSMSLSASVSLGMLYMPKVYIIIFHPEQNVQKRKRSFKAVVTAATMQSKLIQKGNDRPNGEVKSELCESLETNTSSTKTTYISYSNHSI

Row | SMILES | z-score
1 | COC(=O)Nc1sccc1C(=O)Nc1sccc1C(=O)OC | -0.429
2 | COc1ccccc1OCC(=O)NNC(=O)c1ccoc1C | -0.097
3 | S=C(NCCc1ccccc1)N1CCN(Cc2ccccc2)CC1 | -0.499
4 | CC1CN(CC(O)COc2ccc(C(C)C)cc2)CC(C)O1 (stereo unspecified) | 0.0203
5 | O=C(O)Cc1ccc(NC(=S)NCc2ccco2)cc1 | -0.186
6 | CCc1cccc(CC)c1NC(=O)C1CC(=O)N(c2ccc3c(c2)OCCO3)C1 (stereo unspecified) | 0.0742
7 | COc1cc(S(=O)(=O)N2CCOCC2)ccc1NC(=O)CSc1nnc(N)s1 | -0.0578
8 | CCC(C(=O)NC1CCCC1)N(C(=O)Cn1nnc(-c2ccc(C)cc2)n1)C1CCCC1 (stereo unspecified) | -0.114
9 | CCc1nn2c(N3CCOCC3)cc(C)nc2c1-c1ccc(F)cc1 | 0.146
10 | Cn1c(-c2sc3ccccc3c2Cl)n[nH]c1=S | active: 13.3
11 | O=C(NCc1ccco1)C1(S(=O)(=O)c2ccc(Cl)cc2)CC1 | 0.211
12 | CC(NC(=O)c1ccccc1Br)c1nnc(SCc2ccc([N+](=O)[O-])cc2)n1C (stereo unspecified) | -0.173
13 | O=C(c1cc2cc([N+](=O)[O-])ccc2oc1=O)N1CCN(c2ncccn2)CC1 | -0.0811
14 | Cc1cc(-c2ccccc2)n2ncc(-c3ccccc3)c2n1 | 0.389
15 | Cc1c(C(N)=O)sc2nc(-c3ccccc3)cn12 | -0.498
16 | CCc1c(C)c(C#N)c2nc3ccccc3n2c1NCCN(C)C | -1.34
17 | Cc1ccc(OCc2ccc(C#N)cc2)c(C(=O)c2cc(C#N)c(=O)n(C3CC3)c2)c1 | -0.119
18 | CN(C)C(=S)NC1(C)CCS(=O)(=O)C1 (stereo unspecified) | -0.154
19 | CCN(CC)S(=O)(=O)c1ccc(S(=O)(=O)Nc2ccc3c(c2)oc2ccccc23)cc1 | 0.00796
20 | N#Cc1ccccc1NC(=O)CSc1nnc(-c2ccccc2)n1-c1ccccc1 | 0.392
21 | CCOc1ccc(N/C(=C(/C(Cl)=C(Cl)Cl)[N+](=O)[O-])n2cncn2)cc1 | -0.895
22 | CCOc1c(Cl)cc(CNCC(C)C)cc1OC | 0.338
23 | Cc1ccc(/C=N/NC(=O)c2cccs2)s1 | 1.3

Row | SMILES | z-score
24 | CCn1c(NC(=O)c2ccc(C)cc2)c2ccccc2nc1=O | 0.188
25 | CC(C)CCn1c(CN2CCN(Cc3ccccc3)CC2)nc2c1c(=O)[nH]c(=O)n2C | active: 5.8
26 | COc1ccc(/C=N/N2CCN(C)CC2)cc1O | -0.0356
27 | CCOC(=O)c1c(NC(=O)c2ccc(Cl)cc2)csc1C | -0.162
28 | O=C(CSc1ccc(Cl)cc1)Nc1cccc(-c2nc3ccccc3[nH]2)c1 | -0.441
29 | O=C(CSc1ccc2ccccc2c1)Nc1ccncc1 | -0.386
30 | CCOC(=O)c1sc(NC(=O)c2cccnc2)nc1C | -0.674
31 | O=C(NCc1ccc2c(c1)OCO2)c1ccc2c(c1)C(=O)N(CC1CCCO1)C2=O (stereo unspecified) | 0.355
32 | O=C(Nc1ccc2oc(-c3ccc(Cl)c(Cl)c3)nc2c1)c1ncn[nH]1 | -0.0214
33 | O=C(Nc1cc(Cl)cc(Cl)c1)C1CCC(=O)N1Cc1ccccc1Cl (stereo unspecified) | -0.359
34 | CN1C(=S)SC(C)(NO)C1(C)C (stereo unspecified) | 0.681
35 | COc1ccc(-c2noc(COc3ccc4c(c3)OCO4)n2)cc1 | -1.18
36 | S=C(NCC1CCCCC1)Nc1ccc(Oc2ccccc2)cc1 | 0.317
37 | Cc1[nH][nH]c(=O)c1C(c1ccc(-c2ccc(Cl)cc2)o1)c1c(C)[nH][nH]c1=O | -0.559
38 | O=C1C2CCCN2C(c2ccccc2)N1c1ccc(F)cc1 (stereo unspecified) | -0.142
39 | COC(=O)/C=C1\S/C(=N/N=C/c2ccccc2)NC1=O | -0.497
40 | CCOC(=O)CN1C(=O)C(C)(C)Oc2ccc(C(=O)Nc3ccccc3)cc21 | -0.637
41 | CNC(=O)/C=C1\NC(C)(C)Cc2c1ccc1ccccc21 | -1.06
42 | CCNC(=S)NNC(=O)c1cccc(Br)c1 | 0.0953
43 | COc1cc(SC)ccc1C(=O)Nc1ccon1 | -0.218
44 | Cn1c(=O)[nH]c(=O)c2c1nc(N1CCN(c3cccc(Cl)c3)CC1)n2CCCc1ccccc1 | -0.12
45 | CCCN(CCC)CC(O)Cn1cc(/C=C/C(=O)c2cccs2)c2ccccc21 (stereo unspecified) | active: -3.19
46 | CCC(C)(C)NC(=O)Cc1ccccc1OC | -0.0159

Row | SMILES | z-score
47 | Cc1ccc(C(=O)Cn2nnc(-c3ccccc3-n3cnnn3)n2)cc1 | 0.254
48 | C(=N\N1CCN(Cc2cccc3ccccc23)CC1)/c1ccco1 | -0.0601
49 | Cc1nn(C)c(Oc2ccccc2)c1CCNS(=O)(=O)c1ccccc1 | -0.194
50 | O=C(C1CC1)N1CCc2cc(S(=O)(=O)N3CCCc4ccccc43)ccc21 | -0.2
51 | Cc1cccc(NC(=O)c2ccc(OCC3CCCO3)cc2)c1C (stereo unspecified) | -0.269
52 | O=C1CCC(c2ccccc2)N1C(=O)c1cccnc1 (stereo unspecified) | -0.511
53 | CC(=O)Nc1ccc(S(=O)(=O)Nc2cc(C)c(-n3nc4ccccc4n3)cc2O)cc1 | 0.525
54 | COc1ccc(-c2cc(C(F)(F)F)nc(N3CCN(Cc4ccccc4)CC3)n2)cc1OC | 0.105
55 | CCN(CC)C(=O)c1scc2c1OCCO2 | -0.422
56 | NC1=NN(c2cccc(C(=O)O)c2)C(=O)C1 | -0.0661
57 | COc1ccc(Br)cc1CN1CCN(C(=O)c2cccc(OC)c2OC)CC1 | 0.185
58 | CC(C)/C=N\NC(=O)CCCCC(=O)N/N=C/C(C)C | -0.357
59 | COc1cc(NC(=O)c2cccs2)ccc1NC(=O)c1ccco1 | -1.62
60 | CCOc1ccccc1-c1nc(C(N)=O)c2[nH]c(=O)n(-c3ccccc3)c2n1 | 0.0908
61 | O=Cc1c(Sc2ccccn2)nc2ccccn2c1=O | -0.196
62 | CCn1c(SCC(=O)Nc2ccc3c(c2)OCCO3)nnc1-c1ccco1 | -0.239
63 | N#Cc1c(N)nc2c(c1-c1ccncc1)CCCCCC2 | 0.22
64 | CCC(C)Cn1c(S(=O)(=O)O)nc2ccccc21 (stereo unspecified) | -0.238
65 | CCCCn1c(SCC(=O)Nc2nnc(CC)s2)nc2c1c(=O)n(C)c(=O)n2C | -1.36
66 | Brc1csc(/C=N/Nc2nc3ccccc3s2)c1 | -0.251
67 | COc1ccc(-c2cnc(N)nc2-c2ccc(OC)cc2O)cc1 | -0.553
68 | O=C(CCN1CCc2ccccc2CC1)c1ccc2c(c1)OCCO2 | 0.15
69 | CC(C)OCCCN1C(=O)c2[nH]nc(-c3ccccc3O)c2C1c1cccc(Cl)c1 (stereo unspecified) | -0.148

Row | SMILES | z-score
70 | O=C(COC(=O)c1ccccc1NC(=O)C1CC1)c1ccc2c(c1)OCCO2 | -1.16
71 | O=C(NC1CCN(S(=O)(=O)c2ccccc2)CC1)C1CCCCC1 | 0.185
72 | CCOc1ccc(C(=O)N2CCCC2)cc1 | -0.0984
73 | COc1ccc(CCNC(=O)COC(=O)C2CCCCC2)cc1 | -0.428
74 | CC1CCC(=C(C#N)C(=O)Nc2cccc(Cl)c2)CC1 (stereo unspecified) | -0.314
75 | CCN(CC)S(=O)(=O)c1cccc(C(=O)N[C@H](C(=O)OCC(=O)NC(=O)NC)C(C)C)c1 | -0.399
76 | NC(=O)C1CCN(C(=O)Cc2ccc([N+](=O)[O-])cc2)CC1 | -0.0666
77 | O=C(CN1CCOCC1)Nc1c(-c2ccccc2)c2cc(Br)ccc2[nH]c1=O | -0.356
78 | Cc1cc(C(=O)OC(C(=O)Nc2cccc(C(F)(F)F)c2)c2ccccc2)c(C)o1 (stereo unspecified) | -0.299
79 | O=c1c2cnn(-c3ccccc3)c2nc(-c2ccco2)n1-c1ccccc1 | -0.191
80 | CC1=NN(C(=O)c2ccc(Cn3nc(C)c([N+](=O)[O-])c3C)o2)C(O)(C(F)(F)F)C1 (stereo unspecified) | 0.08
81 | COc1ccc(N2CCN(c3nc4c(c(=O)n(C)c(=O)n4C)n3Cc3ccccc3)CC2)cc1 | -1.25
82 | c1cn(-c2ncnc3sc4c(c23)CCCC4)cn1 | -0.0646
83 | O=C(CCCN1C(=O)CCC1=O)Nc1ccc2c(c1)OCCO2 | 0.374
84 | CCOC(=O)c1c2n(c3ccc(O)cc13)CCCCC2 | -0.822
85 | O=C(c1ccccc1)N1CCN(CC#CC2(O)CCCCC2)CC1 | -0.0941
86 | CCc1nnc(NS(=O)(=O)c2ccc(NC(=S)NC(=O)c3ccc(Br)cc3)cc2)s1 | -1.21
87 | CC(=O)NC(Cc1ccc(C)cc1)C(=O)NC1CCN(C(=O)c2ccc([N+](=O)[O-])cc2)CC1 (stereo unspecified) | 0.305
88 | CCc1ccccc1NS(=O)(=O)c1ccc2[nH]cc(C(=O)NCc3ccco3)c(=O)c2c1 | 0.208
89 | Cc1ccc(N(C(=O)c2ccc(CN3CCOCC3)o2)C(C(=O)NCCC(C)C)c2cccs2)c(C)c1 (stereo unspecified) | 0.742
90 | CC(c1ccccc1)N1CCn2c(nc3cc(NC(=O)c4cccs4)ccc32)C1 (stereo unspecified) | -0.735
91 | CCOc1ccccc1NC(=O)CSc1nnnn1-c1ccccc1 | 1.38
92 | O=C(Nc1ccc(CN2CCOCC2)cc1)c1cccs1 | 0.262

Row | SMILES | z-score
93 | COC(=O)c1[nH]c2ccc(F)cc2c1NC(=O)Nc1ccc(OC)cc1 | 0.178
94 | CCOC(=O)c1ccc(N2C(=O)c3n[nH]c(C)c3C2c2ccc(OC)cc2)cc1 (stereo unspecified) | -0.000728
95 | Cc1c(C(=O)O)oc2ccc(S(=O)(=O)NCc3ccccc3)cc12 | 0.326
96 | Brc1cccc(-c2nnc3sc(CNC4CCCC4)cn23)c1 | -0.497
97 | O=C(CCCSc1nc(-c2ccco2)cc(C(F)(F)F)n1)Nc1ccc2c(c1)OCO2 | -0.675
98 | O=C1/C(=C\c2ccc3ccccc3c2)CCCc2ccccc21 | 0.0934
99 | Nc1ccc(Sc2cc(Cl)nc(N)n2)cc1 | 0.297
100 | CC(C)C(OC(=O)C1=Cc2ccccc2OC1)C(=O)NC1CCCC1 (stereo unspecified) | -0.0248
101 | Cc1cccc(C)c1-n1c(C)cc(/C=C2\NC(=O)NC2=O)c1C | -0.96
102 | O=C(c1ccccc1)N1CCN(c2ccc([N+](=O)[O-])c(NCc3ccco3)c2)CC1 | -0.534
103 | O=C(N1CCCCCC1)N1CCN(C(=O)N2CCCCC2)CC1 | 0.0492
104 | O=S(Cc1ccccc1)CC(O)(c1ccccc1)c1ccccc1 (stereo unspecified) | -0.041
105 | COC(=O)C(Cc1cnc(Cl)s1)(C(=O)OC)c1ccc([N+](=O)[O-])cc1 | -0.495
106 | CCCCC1(C)NC(=O)c2c(C)sc(C(=O)OCC)c2N1 (stereo unspecified) | -0.95
107 | CC(C)n1c(=S)[nH]c2c1c(=O)[nH]c(=O)n2C | -0.0669
108 | CN1C(=O)c2ccc(NC(=S)NC(=O)C(C)(C)C)cc2C1=O | -0.0666
109 | N/C(=N\OC(=O)c1ccc2c(c1)OCO2)c1ccc(Cl)cc1 | -0.227
110 | CCC(=O)Nc1nonc1-c1nc2ccccc2n1N(C(=O)CC)C(=O)CC | -0.00733
111 | Fc1ccccc1COc1ccccc1/C=N/Nc1nc(N2CCCC2)nc(N2CCCC2)n1 | -0.084
